Data reported in the supplement of paper PMC11417369.
The other results are listed elsewhere or left out.

What follows are sequences tested on PfAP2-HC AP2 domain (GST-tagged) (assay: gcPBM binding intensity (ln(normalized median fluorescence intensity)); higher = stronger DNA binding).
Summary of the method: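 Binding intensity values are the highest Masliner-normalised natural-log median intensity among replicate spots of either probe orientation. The binding step lasted 1 h in 1× PBS with 1% milk, 0.2 mg/ml BSA, 0.5% salmon testes DNA and 0.03% Triton X-100, using GST-tagged P. falciparum DNA-binding domains expressed in E. coli on an Agilent 4 × 180k array of primer-extended double-stranded 36-bp intergenic genomic probes plus negative controls. Alexa488 anti-GST antibody and a 488 nm scan detected bound protein.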

Sequence | gcPBM binding intensity (ln)
GAAAAAAGAAAAAAAAGTACATATATTTAATAAGAC [XGTACX_site6912] | 9.78
TTATCCATAAAAAAGTGTACGCACTAAAATTGAAAA [XGTACX_site5460] | 9.64
TATAATTCATATGAAACACACATTTATTTTAATTAC [CACACA_site3686] | 9.71
TAGGCGTTTAATAAAAGTACCCACACATATATTATT [XGTACX_site1932] | 9.87
TTTATTATCGTTCTCATACACACAAAATATACATAC [CACACA_site2642] | 9.99
AATTCAAATATAAATACACACACATAGCTACAAAAT [CACACA_site9386] | 10.3
ATTTAACAACTTCAAACACACAATATATATATATAT [CACACA_site2093] | 9.72
AAATATATATGTGGGGGTACTAATAAAAAAACCCCT [XGTACX_site2657] | 9.61
CATAAATTAATAGTCACACACGTATTTTTTATATAT [CACACA_site2526] | 9.94
AAAAAAAAAAAAAGGTGTACATGCAAAATAAATTCT [XGTACX_site4592] | 9.95
AAATAAATAAGAAACGCATGCATATATAATATATAA [TGCATGCA_site326] | 9.98
GTTATTTATAGACACACACACATGCATGCACATATA [CACACA_site6204] | 10.4
CATATGTTCATCATAGCACACATATATAAATTACAA [CACACA_site9177] | 9.63
ATATATATATATATTTGTACATATATACATAAAATT [XGTACX_site359] | 9.75
CACACCCACAGACACACACACACATATATATATATA [CACACA_site363] | 10.8
TTTAAAATGGGACTTTGAAAAAAAAAAAAAAAAACA [TGCATGCA_negctrl_site111] | 9.31
GAAAAAGTTATAAATTGTACTAAATATTAAATATTG [XGTACX_site7890] | 9.48
CATATATATTTGTTCACACACACACCCAAAAAAAAA [CACACA_site2476] | 10.3
TATAGGTATGTATGTACACACAAAAAATGGAATATA [CACACA_site7704] | 10.2

Sequence | gcPBM binding intensity (ln)
TATATATATATATATTGTACATAATGTATATATGTT [XGTACX_site3448] | 9.74
TATATATCATTTAAAACACACAAAAAAAAAAGTTAT [CACACA_site6191] | 9.76
GACTTTTCATTTATAGTGCAAGTTTTTTTTTTTTTT [GTGCAC_site9698] | 9.74
ATAAATATAAAAAAATGTACATATAGTAATACATAC [XGTACX_site508] | 9.79
GAAATAAAAAGAAATGCATGTAATTTTTTTTTTTTT [TGCATGCA_site928] | 9.6
ATAAGTATAAGAATCAGTACACAGTTTCTACATACT [XGTACX_site5834] | 9.64
TTGTATTTTTAAATGACACACACATATATATATATA [CACACA_site8481] | 9.94
AATAAATAAGCACATACACACATACATACATACATA [CACACA_site6075] | 10.1
AAGTTATAAAAATAAAGTACAAAGTAGCTATTTTTT [XGTACX_site3144] | 9.74
ATTAAAACCAATTAAAAAAAATTTATAATGGAAGCA [TGCATGCA_negctrl_site273] | 9.43
TATTATTGTTGTTCATGTACACACTATAATAAAAGC [XGTACX_site8957] | 9.64
GAGATAAAATAAAACACACACATATATATATATAAT [CACACA_site5246] | 10.3
AATGACTAAATTTAAACACACAAGGGGAGTTTACTT [CACACA_site918] | 9.67
ATATATATATATATATGTACTTAATATTTCTTATTT [XGTACX_site6206] | 9.56
TTATTCAGAAAAAAAAAAAAAAAAAAAAAAAAAAAA [CACACA_negctrl_site1662] | 8.88
TATATATATGTGCAGTGTACTTTTTTTTTCTGTAAG [XGTACX_site3424] | 9.57
ATATGTAAAGAAAAGTAAACACTAATTTTAAACAAT [CACACA_negctrl_site11] | 9.79
TTTTTTTTAATTGTGATACGTATATTATTTTTTGAT [TGCATGCA_negctrl_site318] | 9.58
ATTTTTAATATTATTACACACACTAATAAAAAAAAA [CACACA_site8265] | 9.77

Sequence | gcPBM binding intensity (ln)
GAGAAGACATTACACAGTACCCAGGAAATCTACGGA [XGTACX_site1993] | 9.6
TCGACAAATGTATATACACACATTTGTAACATAAAT [CACACA_site560] | 9.88
TATAAAGGTGAAATTTGTACATAGTCATTTTTTAAT [XGTACX_site4811] | 9.52
TGATTAAAAGAGGGAAAAAAAAAAAAAAAAAAAAAA [CACACA_negctrl_site896] | 8.75
TGACGAAAAAAAAGGGTGCTTAGTATAACTTTAAAG | 9.44
TTCTTTTTTAAACACACACACACAAGAAAATATATA [CACACA_site5680] | 10.3
TTTCTTATATAAGTGTACTAAAATATATATATGCAA [GTGCAC_negctrl_site546] | 9.36
ATTTTTTTTTTAAAATGTACATGAGAAATTGTATAT [XGTACX_site425] | 9.47
TAACATAATATAGACACACACATGTACATATGCCAA [CACACA_site1842] | 10.6
TATATTATTAATTAAGCACACATTATTTTTATAATA [CACACA_site3982] | 9.47
TAAAAAAATAAATATACACACATATATAAATATGTA [CACACA_site6641] | 9.74
TATGAATATCTATACACACACATATATATACTCACT [CACACA_site1597] | 10.2
CAAAGATATATAAACACACAAATATAACATATATAC [CACACA_site7395] | 9.99
TACACTTGTAATTGCGTGCACGAAGGATATATATAT | 10
TATATTATTATATATTGTACTTTTTATATTTGCATT [XGTACX_site2978] | 9.83
TATGTATATTTTTTTGTGCACATATATATATATATA | 9.79
ATATAATTATATAAATGTACTCATTCGTTATTTTGC [XGTACX_site6132] | 9.63
TACTATATCGATACCAGTACAGATTTATAAATAATA [XGTACX_site7491] | 9.46
AAATATAATAATAATTTAAGAATCTAATATTTTATA [CACACA_negctrl_site831] | 9.37
